Experimental data taken from publication PMC2854127, “Structural Basis for Fe–S Cluster Assembly and tRNA Thiolation Mediated by IscS Protein–Protein Interactions” (PLoS Biology, 2010).
Results are given in words; binding and its absence hold for the method and conditions named. For part of these data: In cells and extracts the contact can be indirect. Some entries that bind do so weakly or less than the wild type. For part of these data: Sequences can lack the tags named with a protein.

Chains of the proteins cited; added tags and fusions are not shown.
UniProt P0A890: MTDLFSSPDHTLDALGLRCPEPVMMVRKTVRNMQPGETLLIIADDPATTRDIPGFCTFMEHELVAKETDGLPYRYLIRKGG

Experiments:
GST-IscU (wild type) = GST-IscU (wild type) (UniProt P0ACD6); assay: pull-down
GST-IscX [1] = target: T1, GST-IscX (UniProt P0C0L9); assay: pull-down
T1 sequence: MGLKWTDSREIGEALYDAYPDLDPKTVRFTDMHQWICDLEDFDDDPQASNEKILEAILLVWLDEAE

GST-ThiI = target: T2, GST-ThiI (UniProt P77718); assay: pull-down
T2 sequence: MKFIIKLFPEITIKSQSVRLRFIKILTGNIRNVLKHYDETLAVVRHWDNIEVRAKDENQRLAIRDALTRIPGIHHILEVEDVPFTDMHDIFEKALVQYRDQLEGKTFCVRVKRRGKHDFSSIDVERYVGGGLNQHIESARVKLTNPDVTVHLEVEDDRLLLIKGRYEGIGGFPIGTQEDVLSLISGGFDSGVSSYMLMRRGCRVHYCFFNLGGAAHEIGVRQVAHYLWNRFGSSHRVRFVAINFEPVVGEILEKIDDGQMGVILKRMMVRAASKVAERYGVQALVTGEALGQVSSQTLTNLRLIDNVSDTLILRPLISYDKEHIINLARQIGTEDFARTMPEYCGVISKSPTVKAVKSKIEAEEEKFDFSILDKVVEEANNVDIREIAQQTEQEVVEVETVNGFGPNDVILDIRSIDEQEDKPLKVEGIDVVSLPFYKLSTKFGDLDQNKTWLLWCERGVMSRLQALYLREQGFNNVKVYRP

GST-CyaY [2] = target: T3, GST-CyaY (UniProt P27838); assay: pull-down
T3 sequence: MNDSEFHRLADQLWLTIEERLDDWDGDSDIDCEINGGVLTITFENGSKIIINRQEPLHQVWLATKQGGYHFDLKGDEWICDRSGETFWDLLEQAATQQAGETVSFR

[3] = target: GST-IscU D9R (E. coli O157:H7 EDL933) (UniProt P0ACD6); assay: pull-down
[4] = target: GST-IscU E5L (E. coli O157:H7 EDL933) (UniProt P0ACD6); assay: pull-down
[5] = target: GST-IscU E98R (E. coli O157:H7 EDL933) (UniProt P0ACD6); assay: pull-down
[6] = target: GST-IscU K103E (E. coli O157:H7 EDL933) (UniProt P0ACD6); assay: pull-down
[7] = target: GST-IscU Y11A (E. coli O157:H7 EDL933) (UniProt P0ACD6); assay: pull-down
GST-TusA (wild type) [8] = target: GST-TusA (wild type) (UniProt P0A890); assay: pull-down
GST-CyaY [9] = target: T3, GST-CyaY; assay: pull-down; both purified
GST-IscX [10] = target: T1, GST-IscX; assay: pull-down; both purified
GST-TusA (wild type) [11] = target: GST-TusA (wild type) (UniProt P0A890); assay: pull-down; both purified

With “His6-IscS R39E (from UniProt P0A6B9) (enzyme)” the binding (GST-IscU (wild type)) was “binds”, the binding (GST-IscX [1]) was “binds” and the binding (GST-ThiI) was “binds”.

With “His6-IscS D346R (from UniProt P0A6B9) (enzyme)” the binding (GST-IscU (wild type)) was “binds”, the binding (GST-IscX [1]) was “binds” and the binding (GST-ThiI) was “binds”.

With “His6-IscS D65F (from UniProt P0A6B9) (enzyme)” the binding (GST-CyaY [2]) was “binds”, the binding (GST-IscU (wild type)) was “binds” and the binding (GST-IscX [1]) was “binds”. The binding (GST-ThiI) was “binds”.

In the case of “His6-IscS R340E (from UniProt P0A6B9) (enzyme)”, the binding (GST-CyaY [2]) is reported as “no binding”, the binding (GST-IscU (wild type)) is reported as “binds” and the binding (GST-ThiI) is reported as “no binding”.

For “His6-IscS D52M (from UniProt P0A6B9) (enzyme)”, the binding (GST-IscU (wild type)) was “binds”.

In the case of “His6-IscS E49A (from UniProt P0A6B9) (enzyme)”, the binding (GST-IscU (wild type)) is reported as “binds”.

In the case of “His6-IscS D52A (from UniProt P0A6B9) (enzyme)”, the binding (GST-IscU (wild type)) is reported as “binds”.

With “His6-IscS (wild type) (from UniProt P0A6B9) (enzyme)” the binding (GST-CyaY [2]) was “binds”, the binding [3] was “binds” and the binding [4] was “binds”. The binding [5] was “binds”, the binding [6] was “no binding” and the binding [7] was “binds”. For the same substance, the binding (GST-IscX [1]) was “binds”, the binding (GST-ThiI) was “binds” and the binding (GST-TusA (wild type) [8]) was “binds”.

With “His6-IscS R220E (from UniProt P0A6B9) (enzyme)” the binding (GST-CyaY [2]) was “no binding”, the binding (GST-IscU (wild type)) was “binds” and the binding (GST-IscX [1]) was “no binding”. For the same substance, the binding (GST-ThiI) was “no binding”.

In the case of “His6-IscS R225E/E227R (from UniProt P0A6B9) (enzyme)”, the binding (GST-CyaY [2]) is reported as “no binding”, the binding (GST-IscU (wild type)) is reported as “binds” and the binding (GST-IscX [1]) is reported as “no binding”. For the same substance, the binding (GST-ThiI) was “binds”.

With “His6-IscS R237E/M239E (from UniProt P0A6B9) (enzyme)” the binding (GST-CyaY [2]) was “no binding”, the binding (GST-IscU (wild type)) was “binds” and the binding (GST-IscX [1]) was “no binding”. For the same substance, the binding (GST-ThiI) was “no binding”.

In the case of “His6-IscS-IscU complex (formed beforehand) (from UniProt P0A6B9;P0ACD6)”, the binding (GST-CyaY [9]) is reported as “binds”, the binding (GST-IscX [10]) is reported as “binds” and the binding (GST-TusA (wild type) [11]) is reported as “no binding”.

For “His6-IscS C328S (from UniProt P0A6B9) (enzyme)”, the binding (GST-IscU (wild type)) was “binds” and the binding (GST-ThiI) was “binds”.

For “His6-IscS D52Y (from UniProt P0A6B9) (enzyme)”, the binding (GST-IscU (wild type)) was “binds”.

“His6-IscS W45R (from UniProt P0A6B9) (enzyme)” was tested, and the binding (GST-CyaY [2]) was “binds”, the binding (GST-IscU (wild type)) was “binds” and the binding (GST-IscX [1]) was “binds”.

With “His6-IscS R223E/R225E (from UniProt P0A6B9) (enzyme)” the binding (GST-IscU (wild type)) was “binds” and the binding (GST-IscX [1]) was “no binding”.

“His6-IscS A327V (from UniProt P0A6B9) (enzyme)” was tested, and the binding (GST-IscX [1]) was “no binding”.

For “His6-IscS L386R (from UniProt P0A6B9) (enzyme)”, the binding (GST-IscU (wild type)) was “binds”, the binding (GST-IscX [1]) was “binds” and the binding (GST-ThiI) was “binds”.

With “His6-IscS R223E (from UniProt P0A6B9) (enzyme)” the binding (GST-CyaY [2]) was “no binding” and the binding (GST-IscX [1]) was “no binding”.

With “His6-IscS E311R (from UniProt P0A6B9) (enzyme)” the binding (GST-IscU (wild type)) was “binds” and the binding (GST-IscX [1]) was “binds”.

In the case of “His6-IscS R112E (from UniProt P0A6B9) (enzyme)”, the binding (GST-IscU (wild type)) is reported as “binds” and the binding (GST-ThiI) is reported as “binds”.

With “His6-IscS D52R (from UniProt P0A6B9) (enzyme)” the binding (GST-CyaY [2]) was “binds”, the binding (GST-IscU (wild type)) was “binds” and the binding (GST-IscX [1]) was “binds”.

“His6-IscS F89E (from UniProt P0A6B9) (enzyme)” was tested, and the binding (GST-IscU (wild type)) was “binds”.

For “His6-IscS R116E (from UniProt P0A6B9) (enzyme)”, the binding (GST-IscU (wild type)) was “binds”.

“His6-IscS M389R (from UniProt P0A6B9) (enzyme)” was tested, and the binding (GST-IscU (wild type)) was “binds”.

With “His6-IscS G234L (from UniProt P0A6B9) (enzyme)” the binding (GST-IscU (wild type)) was “binds” and the binding (GST-ThiI) was “binds”.
